In article PMC9668655 (Computational and Structural Biotechnology Journal, 2022):

Target: MOAβT (β-trefoil domain of MOA) (Marasmius oreades, UniProt Q8X123)
Conditions: 20 mM Tris/HCl pH 7.5, 100 mM NaCl, 25 °C; one-site model, N fixed at 2

How did the Kd turn out when `OC[C@H]1O[C@H](O[C@H]2[C@@H](O)[C@@H](CO)OC(O)[C@@H]2O)[C@H](O)[C@@H](O)[C@H]1O` (stereo partly shown) [Galα1-3Gal] was run?
Its Kd is 150 µM.
